Earlier results on 69 sequences are cited in article PMC11006913.

Substitutions are numbered along the chain they refer to. This is one part of the list.

What all share (details): PBM; conditions not shown; double strand, one strand shown; scale: upbm affinity estimate (log intensity, higher = more binding, comparable within an allelic series)
Data set [1] has as its target HOXD13 Q325R (Homo sapiens) (UniProt P35453).
Data set [2] concerns the target PITX2 L100Q (Homo sapiens) (UniProt Q99697).
Data set [3] has as its target PITX2 R108H (Homo sapiens) (UniProt Q99697).
The target in data set [4] is PITX2 R130W (Homo sapiens) (UniProt Q99697).
Data set [5] addresses PITX2 T114P (Homo sapiens) (UniProt Q99697).
In data set [6] the target is T1, PBX4 (Homo sapiens) (UniProt Q9BYU1).
T1 sequence: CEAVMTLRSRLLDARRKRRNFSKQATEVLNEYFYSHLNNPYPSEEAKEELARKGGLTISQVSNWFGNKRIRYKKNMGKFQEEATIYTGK

Data set [7] deals with T2, PBX4 R215Q (Homo sapiens) (UniProt Q9BYU1).
T2 sequence: T1 sequence with R19Q

For data set [8], the target named is ISX (Homo sapiens) (UniProt Q2M1V0).
Data set [9] concerns the target ISX R83Q (Homo sapiens) (UniProt Q2M1V0).

Sequence of UniProt P35453 (P35453 263-343 Q325R): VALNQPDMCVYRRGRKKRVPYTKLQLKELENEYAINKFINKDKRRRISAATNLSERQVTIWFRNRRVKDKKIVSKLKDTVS

With CTTTTGTA [8-mer CTTTTGTA], the binding signal in data set [1] was 11.7.
As for AAGTACAA [8-mer AAGTACAA], the binding signal in data set [1] is 11.8.
With GCGTACAA [8-mer GCGTACAA], in [1], the binding signal was 11.9.
On to CATCTAAA [8-mer CATCTAAA], for which, in data set [1], the binding signal was 11.9.
AGTTGTAC [8-mer AGTTGTAC]: in data set [1], the binding signal is 11.6.
Consider ACTTTATA [8-mer ACTTTATA], for which the binding signal in data set [1] was 12.
As to AGGTACAA [8-mer AGGTACAA], in data set [1], the binding signal was 11.4.
As to ATCTAAAA [8-mer ATCTAAAA], the binding signal in data set [1] is 12.
As to AGTCTAAA [8-mer AGTCTAAA], the binding signal in [1] is 11.5.
As for AGTATTAA [8-mer AGTATTAA], the binding signal in data set [1] was 12.1.
For ATAAATAT [8-mer ATAAATAT], the binding signal in data set [1] is 12.
Take ATAAAAAT [8-mer ATAAAAAT]: in data set [1], the binding signal was 12.1.
As to GGTACAAC [8-mer GGTACAAC], the binding signal in [1] was 11.6.
In the case of CCGTACTA [8-mer CCGTACTA], the binding signal in data set [1] was 11.5.
Regarding CGTACAAA [8-mer CGTACAAA], in [1], the binding signal was 12.9.
On to GCGATAAA [8-mer GCGATAAA], for which the binding signal in data set [1] is 12.
Consider TGTCTAAA [8-mer TGTCTAAA], for which the binding signal in data set [1] was 12.
Take GCGTACTA [8-mer GCGTACTA]: the binding signal in data set [1] was 11.6.
On to ACGTACAA [8-mer ACGTACAA], for which the binding signal in [1] is 11.9.
Regarding AGTACTAA [8-mer AGTACTAA], the binding signal in [1] was 12.
Consider CGATAAAA [8-mer CGATAAAA], for which the binding signal in data set [1] is 12.3.
As to GATTAATA [8-mer GATTAATA], the binding signal in [2] is 11.1; in data set [3] it was 9.56; in [4], 8.89; in [5], 9.83.
ACATGTCA [8-mer ACATGTCA]: the binding signal in data set [6] is 11.1; in data set [7], 10.3.
GATAATCC [8-mer GATAATCC]: the binding signal in data set [2] was 11.5; in data set [3], 9.66; in data set [4] it was 8.52; in [5], 10.1.
Regarding GACGCGGC [8-mer GACGCGGC], the values for the binding signal in data set [8] and in data set [9] were 9.75 and 9.77, respectively.
For the sequence CCCTGCGG [8-mer CCCTGCGG], the binding signal was 9.78 in [8] and 9.73 in data set [9].
For the sequence CGCTGGCC [8-mer CGCTGGCC], the binding signal in [8] is 9.53; in [9], 9.57.
In the case of CGGCTTCC [8-mer CGGCTTCC], the binding signal is 9.8 in [8] and 9.72 in [9].
In the case of ACGCCAGG [8-mer ACGCCAGG], the binding signal in data set [8] was 9.74; in data set [9] it was 9.75.
As to CGCTGGGC [8-mer CGCTGGGC], the binding signal is 9.79 in data set [8] and 9.68 in data set [9].
Take CCGGGCTC [8-mer CCGGGCTC]: the binding signal in data set [8] was 9.68; in data set [9], 9.7.
Turning to ACTTATTG [8-mer ACTTATTG], in data set [8], the binding signal was 12.1.
As for GAATGAAC [8-mer GAATGAAC], the binding signal in data set [8] was 10.5; in data set [9] it was 10.3.
For ACAACTTA [8-mer ACAACTTA], the binding signal in data set [8] was 11.3.
Regarding CCAGCTGG [8-mer CCAGCTGG], the binding signal in [8] is 9.71; in data set [9] it was 9.74.
Regarding AGGCCGGG [8-mer AGGCCGGG], the binding signal in [8] is 9.66; in data set [9], 9.7.
Take CCCCATGC [8-mer CCCCATGC]: the binding signal in data set [8] is 9.69; in [9], 9.75.
ACAAATCT [8-mer ACAAATCT]: the values for the binding signal in data set [8] and in [9] were 10.8 and 10.3, respectively.
Consider CCGCTCCG [8-mer CCGCTCCG], for which the binding signal in data set [8] is 9.87; in data set [9], 9.79.
For the sequence CTCCCCCC [8-mer CTCCCCCC], the binding signal in data set [8] is 9.68; in data set [9] it was 9.73.
Take CCCGCACC [8-mer CCCGCACC]: the binding signal in [8] was 9.82; in [9], 9.73.
Take CTGCGCCC [8-mer CTGCGCCC]: the binding signal was 9.57 in data set [8] and 9.73 in data set [9].
As to CTTGTTTA [8-mer CTTGTTTA], the binding signal in data set [8] was 11.
As for CCCGGGGC [8-mer CCCGGGGC], the binding signal was 9.84 in data set [8] and 9.69 in [9].
On to CCCCGGGC [8-mer CCCCGGGC], for which the figures for the binding signal in [8] and in [9] were 9.7 and 9.75, respectively.
In the case of GAGTCCGC [8-mer GAGTCCGC], the binding signal was 9.73 in data set [8] and 9.77 in data set [9].
AAATATTG [8-mer AAATATTG]: the binding signal in data set [8] is 11.5.
As for AATTTCTC [8-mer AATTTCTC], the binding signal in data set [8] is 11.8.
Regarding TCCCGGGA [8-mer TCCCGGGA], the binding signal in data set [8] was 9.95; in [9], 9.78.
With CACAGCCC [8-mer CACAGCCC], the binding signal is 9.79 in data set [8] and 9.76 in [9].
Consider CGAGCCGC [8-mer CGAGCCGC], for which the binding signal is 9.81 in data set [8] and 9.72 in data set [9].
On to CGCCCGGC [8-mer CGCCCGGC], for which the results for the binding signal in data set [8] and in [9] were 9.66 and 9.62, respectively.
As for TGTTATAA [8-mer TGTTATAA], in [8], the binding signal is 11.4.
For CGGCCCGC [8-mer CGGCCCGC], the binding signal in data set [8] is 9.62; in [9], 9.64.
In the case of CCCGCCCG [8-mer CCCGCCCG], the binding signal in [8] is 9.69; in data set [9] it was 9.71.
On to GTCAATGA [8-mer GTCAATGA], for which the binding signal in data set [8] is 11.2.
In the case of CCGCACCC [8-mer CCGCACCC], the binding signal in data set [8] is 9.82; in data set [9] it was 9.79.
Take TGCTATAA [8-mer TGCTATAA]: the binding signal in data set [8] was 10.9.
Consider CTATTATC [8-mer CTATTATC], for which the binding signal in data set [8] was 13.3; in data set [9] it was 11.6.
Turning to CCATGCCC [8-mer CCATGCCC], the figures for the binding signal in [8] and in data set [9] were 9.81 and 9.76, respectively.
For the sequence TTGGCCAA [8-mer TTGGCCAA], the binding signal in data set [8] is 10.1; in [9], 9.86.
Take CGTGATAA [8-mer CGTGATAA]: the binding signal in data set [8] was 11.2.
Take GCCGGCCC [8-mer GCCGGCCC]: the binding signal was 9.78 in data set [8] and 9.63 in [9].
As to CCCGACCC [8-mer CCCGACCC], the binding signal in data set [8] was 9.58; in data set [9], 9.66.
With CCCCGCAC [8-mer CCCCGCAC], the results for the binding signal in [8] and in data set [9] were 9.72 and 9.76, respectively.
Turning to GACGCGCC [8-mer GACGCGCC], the results for the binding signal in data set [8] and in [9] were 9.78 and 9.77, respectively.
For AGCCCCGG [8-mer AGCCCCGG], the binding signal in [8] is 9.58; in data set [9] it was 9.76.
As to CCCAAAGG [8-mer CCCAAAGG], the binding signal in [8] is 9.64; in data set [9], 9.77.
As to GAGTCGCC [8-mer GAGTCGCC], the binding signal in data set [8] is 9.7; in [9], 9.76.
